The other results are listed elsewhere or left out.
Tests used:
Assay in all cases: glycan array binding signal (z-score within array); higher = stronger binding
Conditions in all cases: glycan notation: IUPAC condensed, linker removed
[1] = molecular target: Gal(b1-4)GlcNAc(b1-2)[Gal(b1-4)GlcNAc(b1-6)]Man(a1-6)[GlcNAc(b1-4)][Gal(b1-4)GlcNAc(b1-2)Man(a1-3)]Man(b1-4)GlcNAc(b1-4)GlcNAc
How it was run: (§1)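 The binding signal is a Z-score computed within each array and averaged over linkers. Arrays of the same protein sequence at different concentrations or buffers were also averaged together. Data originate from 3228 arrays in the Consortium for Functional Glycomics database, kept only where the protein sequence was available.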

[2] = molecular target: Gal(b1-4)GlcNAc(b1-2)[Gal(b1-4)GlcNAc(b1-6)]Man(a1-6)[GlcNAc(b1-4)][Gal(b1-4)GlcNAc(b1-2)[Gal(b1-4)GlcNAc(b1-4)]Man(a1-3)]Man(b1-4)GlcNAc(b1-4)[Fuc(a1-6)]GlcNAc
How it was run: as §1

[3] = molecular target: Gal(b1-4)GlcNAc(b1-3)Gal(b1-3)GalNAc
How it was run: as §1

[4] = molecular target: Gal(b1-4)GlcNAc(b1-3)Gal(b1-3)GlcNAc
How it was run: as §1

[5] = molecular target: Gal(b1-4)GlcNAc(b1-3)Gal(b1-4)Glc
How it was run: as §1

[6] = molecular target: Gal(b1-4)GlcNAc(b1-3)Gal(b1-4)GlcNAc
How it was run: as §1

[7] = molecular target: Gal(b1-4)GlcNAc(b1-3)Gal(b1-4)GlcNAc(b1-2)Man(a1-3)[Gal(b1-4)GlcNAc(b1-3)Gal(b1-4)GlcNAc(b1-2)Man(a1-6)]Man(b1-4)GlcNAc(b1-4)GlcNAc
How it was run: as §1

[8] = molecular target: Gal(b1-4)GlcNAc(b1-3)Gal(b1-4)GlcNAc(b1-2)Man(a1-3)[Gal(b1-4)GlcNAc(b1-3)Gal(b1-4)GlcNAc(b1-2)Man(a1-6)]Man(b1-4)GlcNAc(b1-4)[Fuc(a1-6)]GlcNAc
How it was run: as §1

[9] = molecular target: Gal(b1-4)GlcNAc(b1-3)Gal(b1-4)GlcNAc(b1-2)[Gal(b1-4)GlcNAc(b1-3)Gal(b1-4)GlcNAc(b1-6)]Man(a1-6)[Gal(b1-4)GlcNAc(b1-3)Gal(b1-4)GlcNAc(b1-2)Man(a1-3)]Man(b1-4)GlcNAc(b1-4)GlcNAc
How it was run: as §1

[10] = molecular target: Gal(b1-4)GlcNAc(b1-3)Gal(b1-4)GlcNAc(b1-2)[Gal(b1-4)GlcNAc(b1-3)Gal(b1-4)GlcNAc(b1-6)]Man(a1-6)[Gal(b1-4)GlcNAc(b1-3)Gal(b1-4)GlcNAc(b1-2)Man(a1-3)]Man(b1-4)GlcNAc(b1-4)[Fuc(a1-6)]GlcNAc
How it was run: as §1

[11] = molecular target: Gal(b1-4)GlcNAc(b1-3)Gal(b1-4)GlcNAc(b1-3)Gal(b1-4)GlcNAc
How it was run: as §1

[12] = molecular target: Gal(b1-4)GlcNAc(b1-3)Gal(b1-4)GlcNAc(b1-3)Gal(b1-4)GlcNAc(b1-2)Man(a1-3)[Gal(b1-4)GlcNAc(b1-3)Gal(b1-4)GlcNAc(b1-3)Gal(b1-4)GlcNAc(b1-2)Man(a1-6)]Man(b1-4)GlcNAc(b1-4)GlcNAc
How it was run: as §1

[13] = molecular target: Gal(b1-4)GlcNAc(b1-3)Gal(b1-4)GlcNAc(b1-3)Gal(b1-4)GlcNAc(b1-2)Man(a1-3)[Gal(b1-4)GlcNAc(b1-3)Gal(b1-4)GlcNAc(b1-3)Gal(b1-4)GlcNAc(b1-2)Man(a1-6)]Man(b1-4)GlcNAc(b1-4)[Fuc(a1-6)]GlcNAc
How it was run: as §1

[14] = molecular target: Gal(b1-4)GlcNAc(b1-3)Gal(b1-4)GlcNAc(b1-3)Gal(b1-4)GlcNAc(b1-2)[Gal(b1-4)GlcNAc(b1-3)Gal(b1-4)GlcNAc(b1-3)Gal(b1-4)GlcNAc(b1-6)]Man(a1-6)[Gal(b1-4)GlcNAc(b1-3)Gal(b1-4)GlcNAc(b1-3)Gal(b1-4)GlcNAc(b1-2)Man(a1-3)]Man(b1-4)GlcNAc(b1-4)[Fuc(a1-6)]GlcNAc
How it was run: as §1

[15] = molecular target: Gal(b1-4)GlcNAc(b1-3)Gal(b1-4)GlcNAc(b1-3)Gal(b1-4)GlcNAc(b1-3)Gal(b1-4)GlcNAc(b1-2)Man(a1-3)[Gal(b1-4)GlcNAc(b1-3)Gal(b1-4)GlcNAc(b1-3)Gal(b1-4)GlcNAc(b1-3)Gal(b1-4)GlcNAc(b1-2)Man(a1-6)]Man(b1-4)GlcNAc(b1-4)GlcNAc
How it was run: as §1

[16] = molecular target: Gal(b1-4)GlcNAc(b1-3)Gal(b1-4)GlcNAc(b1-3)Gal(b1-4)GlcNAc(b1-3)Gal(b1-4)GlcNAc(b1-2)Man(a1-3)[Gal(b1-4)GlcNAc(b1-3)Gal(b1-4)GlcNAc(b1-3)Gal(b1-4)GlcNAc(b1-3)Gal(b1-4)GlcNAc(b1-2)Man(a1-6)]Man(b1-4)GlcNAc(b1-4)[Fuc(a1-6)]GlcNAc
How it was run: as §1

[17] = molecular target: Gal(b1-4)GlcNAc(b1-3)Gal(b1-4)GlcNAc(b1-3)Gal(b1-4)GlcNAc(b1-3)Gal(b1-4)GlcNAc(b1-2)[Gal(b1-4)GlcNAc(b1-3)Gal(b1-4)GlcNAc(b1-3)Gal(b1-4)GlcNAc(b1-3)Gal(b1-4)GlcNAc(b1-6)]Man(a1-6)[Gal(b1-4)GlcNAc(b1-3)Gal(b1-4)GlcNAc(b1-3)Gal(b1-4)GlcNAc(b1-3)Gal(b1-4)GlcNAc(b1-2)Man(a1-3)]Man(b1-4)GlcNAc(b1-4)[Fuc(a1-6)]GlcNAc
How it was run: as §1

[18] = molecular target: Gal(b1-4)GlcNAc(b1-3)Gal(b1-4)GlcNAc(b1-3)Gal(b1-4)GlcNAc(b1-3)Gal(b1-4)GlcNAc(b1-3)Gal(b1-4)GlcNAc(b1-2)Man(a1-3)[Gal(b1-4)GlcNAc(b1-3)Gal(b1-4)GlcNAc(b1-3)Gal(b1-4)GlcNAc(b1-3)Gal(b1-4)GlcNAc(b1-3)Gal(b1-4)GlcNAc(b1-2)Man(a1-6)]Man(b1-4)GlcNAc(b1-4)GlcNAc
How it was run: as §1

[19] = molecular target: Gal(b1-4)GlcNAc(b1-3)Gal(b1-4)GlcNAc(b1-3)Gal(b1-4)GlcNAc(b1-3)Gal(b1-4)GlcNAc(b1-3)Gal(b1-4)GlcNAc(b1-2)Man(a1-3)[Gal(b1-4)GlcNAc(b1-3)Gal(b1-4)GlcNAc(b1-3)Gal(b1-4)GlcNAc(b1-3)Gal(b1-4)GlcNAc(b1-3)Gal(b1-4)GlcNAc(b1-2)Man(a1-6)]Man(b1-4)GlcNAc(b1-4)[Fuc(a1-6)]GlcNAc
How it was run: as §1

[20] = molecular target: Gal(b1-4)GlcNAc(b1-3)Gal(b1-4)GlcNAc(b1-3)Gal(b1-4)GlcNAc(b1-3)Gal(b1-4)GlcNAc(b1-3)Gal(b1-4)GlcNAc(b1-2)[Gal(b1-4)GlcNAc(b1-3)Gal(b1-4)GlcNAc(b1-3)Gal(b1-4)GlcNAc(b1-3)Gal(b1-4)GlcNAc(b1-3)Gal(b1-4)GlcNAc(b1-6)]Man(a1-6)[Gal(b1-4)GlcNAc(b1-3)Gal(b1-4)GlcNAc(b1-3)Gal(b1-4)GlcNAc(b1-3)Gal(b1-4)GlcNAc(b1-3)Gal(b1-4)GlcNAc(b1-2)Man(a1-3)]Man(b1-4)GlcNAc(b1-4)[Fuc(a1-6)]GlcNAc
How it was run: as §1

[21] = molecular target: Gal(b1-4)GlcNAc(b1-3)Gal(b1-4)GlcNAc(b1-3)Gal(b1-4)GlcNAc(b1-3)Gal(b1-4)GlcNAc(b1-3)Gal(b1-4)GlcNAc(b1-3)Gal(b1-4)GlcNAc(b1-2)Man(a1-3)[Gal(b1-4)GlcNAc(b1-3)Gal(b1-4)GlcNAc(b1-3)Gal(b1-4)GlcNAc(b1-3)Gal(b1-4)GlcNAc(b1-3)Gal(b1-4)GlcNAc(b1-3)Gal(b1-4)GlcNAc(b1-2)Man(a1-6)]Man(b1-4)GlcNAc(b1-4)GlcNAc
How it was run: as §1

[22] = molecular target: Gal(b1-4)GlcNAc(b1-3)Gal(b1-4)GlcNAc(b1-3)GalNAc
How it was run: as §1

[23] = molecular target: Gal(b1-4)GlcNAc(b1-3)Gal(b1-4)GlcNAc(b1-3)[Gal(b1-4)GlcNAc(b1-3)Gal(b1-4)GlcNAc(b1-6)]GalNAc
How it was run: as §1

[24] = molecular target: Gal(b1-4)GlcNAc(b1-3)Gal(b1-4)GlcNAc(b1-6)[Gal(b1-3)]GalNAc
How it was run: as §1

[25] = molecular target: Gal(b1-4)GlcNAc(b1-3)Gal(b1-4)[Fuc(a1-3)GlcNAc(b1-6)]Gal(b1-4)Glc
How it was run: as §1

[26] = molecular target: Gal(b1-4)GlcNAc(b1-3)Gal(b1-4)[Fuc(a1-3)]GlcNAc(b1-3)Gal(b1-4)[Fuc(a1-3)]GlcNAc
How it was run: as §1

[27] = molecular target: Gal(b1-4)GlcNAc(b1-3)GalNAc
How it was run: as §1

[28] = molecular target: Gal(b1-4)GlcNAc(b1-3)[Fuc(a1-3)GlcNAc(b1-6)]Gal(b1-4)Glc
How it was run: as §1

[29] = molecular target: Gal(b1-4)GlcNAc(b1-3)[Gal(b1-4)GlcNAc(b1-6)]Gal(b1-4)GlcNAc
How it was run: as §1

[30] = molecular target: Gal(b1-4)GlcNAc(b1-3)[Gal(b1-4)GlcNAc(b1-6)]GalNAc
How it was run: as §1

[31] = molecular target: Gal(b1-4)GlcNAc(b1-3)[GlcNAc(b1-6)]Gal(b1-4)GlcNAc
How it was run: as §1

[32] = molecular target: Gal(b1-4)GlcNAc(b1-6)Gal(b1-4)GlcNAc
How it was run: as §1

[33] = molecular target: Gal(b1-4)GlcNAc(b1-6)GalNAc
How it was run: as §1

[34] = molecular target: Gal(b1-4)GlcNAc(b1-6)[Gal(b1-3)]GalNAc
How it was run: as §1

[35] = molecular target: Gal(b1-4)GlcNAc(b1-6)[Gal(b1-4)GlcNAc(b1-3)]GalNAc
How it was run: as §1

Gal(b1-4)GlcNAc6P = molecular target: Gal(b1-4)GlcNAc6P
How it was run: as §1

Gal(b1-6)Gal = molecular target: Gal(b1-6)Gal
How it was run: as §1

B1: Gal 4 (Mus musculus), P56470 (protein)
chain: MAYVPAPGYQPTYNPTLPYYQPIPGGLNVGMSVYIQGVASEHMKRFFVNFVVGQDPGSDVAFHFNPRFDGWDKVVFNTLQGGKWGSEERKRSMPFKKGAAFELVFIVLAEHYKVVVNGNPFYEYGHRLPLQMVTHLQVDGDLQLQSINFIGGQPLRPQGPPMMPPYPGPGHCHQQLNSLPTMEGPPTFNPPVPYFGRLQGGLTARRTIIIKGYVPPTGKSFAINFKVGSSGDIALHINPRMGNGTVVRNSLLNGSWGSEEKKITHNPFGPGQFFDLSIRCGLDRFKVYANGQHLFDFAHRLSAFQRVDTLEIQGDVTLSYVQI
glycan array binding signal (z-score) [1]: -0.203 | glycan array binding signal (z-score) [2]: -0.283 | glycan array binding signal (z-score) [3]: 0.135 | glycan array binding signal (z-score) [4]: -0.036 | glycan array binding signal (z-score) [5]: 0.673 | glycan array binding signal (z-score) [6]: -0.076 | glycan array binding signal (z-score) [7]: -0.204 | glycan array binding signal (z-score) [8]: -0.214 | glycan array binding signal (z-score) [9]: -0.175 | glycan array binding signal (z-score) [10]: -0.116 | glycan array binding signal (z-score) [11]: -0.171 | glycan array binding signal (z-score) [12]: -0.249 | glycan array binding signal (z-score) [13]: -0.263 | glycan array binding signal (z-score) [14]: -0.024 | glycan array binding signal (z-score) [15]: -0.195 | glycan array binding signal (z-score) [16]: -0.161 | glycan array binding signal (z-score) [17]: -0.148 | glycan array binding signal (z-score) [18]: -0.202 | glycan array binding signal (z-score) [19]: -0.281 | glycan array binding signal (z-score) [20]: -0.171 | glycan array binding signal (z-score) [21]: -0.147 | glycan array binding signal (z-score) [22]: -0.195 | glycan array binding signal (z-score) [23]: -0.265 | glycan array binding signal (z-score) [24]: -0.261 | glycan array binding signal (z-score) [25]: -0.199 | glycan array binding signal (z-score) [26]: -0.232 | glycan array binding signal (z-score) [27]: -0.222 | glycan array binding signal (z-score) [28]: -0.327 | glycan array binding signal (z-score) [29]: -0.207 | glycan array binding signal (z-score) [30]: -0.182 | glycan array binding signal (z-score) [31]: -0.225 | glycan array binding signal (z-score) [32]: -0.22 | glycan array binding signal (z-score) [33]: -0.252 | glycan array binding signal (z-score) [34]: -0.217 | glycan array binding signal (z-score) [35]: -0.23 | glycan array binding signal (z-score) (Gal(b1-4)GlcNAc6P): -0.171 | glycan array binding signal (z-score) (Gal(b1-6)Gal): -0.209

Reference: the supplement of paper PMC8728848
